# Test results published in PubChem BioAssay AID686979 (National Center for Advancing Translational Sciences (NCATS), 2013).
# About 50,000 (12%) of roughly 420,000 compounds were called active. The inconclusive results got no clear call from the source; some entries with a clear call stand among them for comparison. The call rests on the fitted dose curve; in most records, active means well fitted inhibition curve with a large enough effect; inconclusive means small, poorly fitted or top-dose-only effect; inactive means flat fitted curve, though single readings scatter. Potencies of inconclusive entries are left out as doubtful fits.
# Experiment: qHTS for Inhibitors of human tyrosyl-DNA phosphodiesterase 1 (TDP1): qHTS in cells in presence of CPT; further: nearly all actives have a fitted effect of over 55% in size
# Conditions: chicken DT40 Tdp1-/-;hTDP1 cells + 20 nM CPT, ATP luminescence, 48 h; activity change, negative = growth inhibition: at 46.2 µM (top of the series) unless noted
# Outline: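 Chicken DT40 Tdp1-/- cells stably complemented with human TDP1 were seeded at 400 cells/well in medium containing 20 nM camptothecin, exposed to pin-transferred compounds, and grown at 37 °C for at least 48 hr. Viability was read as ATP luminescence.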
# On the % scale 0 is the no-effect control and ±100 the full control effect; potency means the concentration at half of the fitted maximal effect; tags describe the fitted curve by direction and shape.
SMILES,"activity change, negative = growth inhibition",Potency
CCc1ccc(C2C(C(=O)O)c3ccccc3C(=O)N2C)cc1 (stereo not drawn),inactive: 5.18%,
O=C(CCCN1C(=O)/C(=C\c2ccco2)SC1=S)Nc1ccc(O)cc1C(=O)O,inconclusive: -30.6% [inhibitor],
Cc1cc(C)cc(C(O)c2ncc(-c3ccccc3C)[nH]2)c1 (stereo not drawn),,"inconclusive [inhibitor, single point]"
CC(=O)c1nc(N2CCN(S(=O)(=O)c3ccc(C)cc3)CC2)c2ccccc2n1,,"inconclusive [inhibitor, single point]"
CCn1c(/C=C2\C(=O)Nc3ccccc32)nc2ccccc2c1=O,,"inconclusive [inhibitor, partial curve, poor fit]"
COCCNC(=O)c1onc(CSc2ccc(F)c(F)c2)c1C(=O)NCCOC,,"inconclusive [inhibitor, single point]"
O=C1CC(N2CCSCC2)C(=O)N1c1cccc(Br)c1 (stereo not drawn),inactive: -13.2%,
Oc1ccc(NCc2ccccc2OCc2ccc(Cl)cc2)cc1,,active: 29.1 µM
COc1ccc2nc(SCc3nc(N)nc(Nc4ccccc4)n3)[nH]c2c1,,"inconclusive [inhibitor, single point]"
Cn1cccc1CC(=O)NNC(=S)Nc1ccc(Cl)cc1Cl,,"inconclusive [inhibitor, single point]"
c1ccc(-c2noc(C3CCCCC3)n2)nc1,inactive: -12.5%,
CCOC(=O)NN1C(=O)c2ccccc2NC1c1ccc(OC)cc1OC (stereo not drawn),inactive: 0.0666%,
CSc1ccccc1C(=O)NCCS(=O)(=O)N1CCN(c2ccc(F)cc2)CC1,,"inconclusive [inhibitor, single point]"
Cc1ccc(OCC(=O)c2cc(C)n(Cc3cccs3)c2C)c([N+](=O)[O-])n1,,active: 6.51 µM
Cc1[nH]nc2cn[nH]c12,inactive: -16.2%,
Cc1ccc(Sc2cnc(N)nc2C)cc1,,"inconclusive [inhibitor, single point]"
CCOC(=O)c1c(NC(C)=O)sc(/C(C)=N/Nc2ccc(C(=O)O)cc2)c1C,,"inconclusive [inhibitor, full curve, poor fit]"
CC(=O)Nc1ccc2c(=O)n(-c3ccccc3)sc2c1,,active: 2.59 µM
CCn1c(=O)cc(OCC(=O)N(C)c2cc(Cl)ccc2C)c2ccccc21,,active: 20.6 µM
CC(C)Cn1c(N)c(C(=O)COC(=O)c2cc(C3CC3)nc3ccccc23)c(=O)n(C)c1=O,,"inconclusive [inhibitor, single point]"
O=C(Cn1cnc2c(OCc3ccccc3)ncnc21)N1CCN(c2ccccn2)CC1,inactive: 0.0206%,
O=C(NCN1CCc2ccccc2C1)c1cnccn1,,"inconclusive [inhibitor, single point]"
Cc1cc([N+](=O)[O-])nn1Cc1noc(C(=O)NCCc2ccccn2)n1,inactive: -2.72%,
O=C1C2C(c3cccc(/C=C/c4ccccc4)c3)CC=CC2C(c2ccc3ccccc3c2)N1Cc1ccccc1 (stereo not drawn),,"inconclusive [inhibitor, partial curve]"
O=C(CCCn1c(=S)[nH]c2ccc(Br)cc2c1=O)NCc1ccccn1,,"inconclusive [inhibitor, single point]"

SMILES,"activity change, negative = growth inhibition",Potency
CCOC(=O)CC(NC(=O)C1c2ccccc2Oc2ccccc21)c1ccccc1Cl (stereo not drawn),,"inconclusive [inhibitor, single point]"
O=C1NC[C@H](CC2CCCCC2)N(CC2CCCCC2)C1=O,inactive: -8.3%,
COc1ccccc1NC(=O)Nc1nc(CC(=O)NCc2ccccn2)cs1,,"inconclusive [inhibitor, single point]"
COc1ccc(C(=O)NNC(=O)CSc2nnc(COc3ccccc3OC)n2C)cc1,inactive: 7.59%,
CCc1c(C)nc2ncnn2c1N1CCN(S(=O)(=O)c2ccc(OC)cc2)CC1,,active: 3.66 µM
Cc1nc2c(OCc3ccc(Cl)cc3Cl)cccn2c1N(C)Cc1cccs1,,"inconclusive [inhibitor, single point]"
O=C(Cc1ccc([N+](=O)[O-])cc1)NCC1CCCO1 (stereo not drawn),inactive: 4.84%,
Cc1ccccc1N1C(=O)c2sc3nc4c(c(=O)n3c2C1=O)CCC4,,active: 5.8 µM
Cc1ccc(N(C(=O)c2snc(C(N)=O)c2N)C(C(=O)NC2CCCC2)c2ccc(C)o2)cc1 (stereo not drawn),,"inconclusive [inhibitor, single point]"
COc1cccc(CNC(=O)CN2C(=O)CSc3ccc(S(=O)(=O)N4CCCCC4)cc32)c1,,"inconclusive [inhibitor, single point]"
CCCN(CC(=O)Nc1ccccc1C)C(=O)c1ccc(C2SCCS2)cc1,,"inconclusive [inhibitor, single point]"
CCOCCCNC(=O)c1c(NC(=O)c2nc(SCC)ncc2Cl)sc2c1CCCC2,,"inconclusive [inhibitor, partial curve, poor fit]"
O=C(Nc1nccs1)c1ccc(Cl)cc1[N+](=O)[O-],inactive: -18.7%,
FC(F)(F)c1ccccc1Cc1c(-c2ccco2)nc2ccc(Cl)cn12,,"inconclusive [inhibitor, single point]"
CCN1C(=O)N[C@@H](c2cccc(C(F)(F)F)c2)C(C(=O)OC)=C1C,,active: 16.4 µM
COC(=O)c1ccccc1NC(=O)N1CCC(N2CCN(Cc3ccc(F)cc3)C(=O)C2=O)CC1,inactive: 2.63%,
CC(C)(C)C1CCc2nc(NC(=O)Cc3ccccc3)sc2C1 (stereo not drawn),,"inconclusive [inhibitor, single point]"
COc1ccccc1N1CCN(c2ncnc3n[nH]c(Br)c23)CC1,,"inconclusive [inhibitor, partial curve]"
COc1ccccc1N1C(=O)N(CC(=O)C(C)(C)C)c2ccccc2S1(=O)=O,,inactive
Cc1ccc(N(C)S(=O)(=O)c2cccc(C(=O)Oc3ccc4c(C)cc(=O)oc4c3)c2)cc1,inconclusive: -33.1% [inhibitor],
COc1ccc(-c2cc(C)no2)cc1S(=O)(=O)NCCCN(C)Cc1ccccc1,,"inconclusive [inhibitor, partial curve]"
COCCOc1ccc(C(F)(F)F)cc1NC(=O)COC(=O)c1ccc(N2CCCC2=O)cc1,,"inconclusive [inhibitor, single point]"
CCCn1c(NC(=O)c2cccc(S(=O)(=O)N3CCCC3)c2)nc2ccccc21,,active: 23.1 µM
COC(=O)N1C(=O)[C@](c2ccsc2)(C(C)C)N1C(=O)OC,,active: 14.6 µM
CSc1ccc(-c2nc3cccc(C)n3c2Nc2ccc(Cl)cc2)cc1,,active: 9.2 µM

SMILES,"activity change, negative = growth inhibition",Potency
O=C(Nc1ccc2c(c1)OCCO2)c1ccc(Br)cc1,,"inconclusive [inhibitor, partial curve, poor fit]"
CC(=O)c1ccc(OCCCC(=O)Nc2cccc(S(=O)(=O)N3CCCCCC3)c2)cc1,,"inconclusive [inhibitor, single point]"
CN(C)CCNC(=O)c1ccc(-c2nn(C)c(=O)c3ccccc23)cc1,,"inconclusive [inhibitor, single point]"
O=C(Nc1ccc(Cl)cn1)C1CCCN1S(=O)(=O)c1ccccc1 (stereo not drawn),,active: 20.6 µM
COc1cc(O)c(C(=O)c2ccccc2)cc1S(=O)(=O)O,inactive: 1.23%,
COC(=O)c1ccc(Oc2cc(C)nc(SC)n2)cc1,,active: 4.11 µM
CCCCC(CC)COC(=O)c1ccc(N(C)C)cc1 (stereo not drawn),,inactive
CC(C)OC(=O)C(C)Oc1ccc(C(=O)NCCc2ccccc2)cc1 (stereo not drawn),inactive: -8.83%,
O=C(Nc1nnc(-c2ccco2)s1)C1CCN(S(=O)(=O)c2ccc(Cl)cc2)CC1,,"inconclusive [inhibitor, single point]"
CCN(CC)S(=O)(=O)c1cc(NS(=O)(=O)c2cccc(C(=O)O)c2)ccc1C,inactive: 1.02%,
CCCOc1ccc(N2C(=O)CC(N(CCc3ccc(OC)cc3)C(=O)c3ccccc3)C2=O)cc1 (stereo not drawn),,"inconclusive [inhibitor, single point]"
COc1ccc(C2N(C(=O)C(F)(F)F)C(C)CN2S(=O)(=O)c2ccc(C)cc2)cc1 (stereo not drawn),inactive: -1.92%,
Cc1ccccc1NC(=O)/C=C/c1cccs1,,"inconclusive [inhibitor, single point]"
CCOc1ccc(CCNC(=O)c2nn(C)c3c2CSc2ccccc2-3)cc1,,active: 16.4 µM
O=C(CN1CCN(Cc2ccccc2F)C1=O)NCCc1ccc(Cl)cc1,inactive: -21%,
COc1cc(S(=O)(=O)N2CCCCCC2)c(OC)cc1Br,,"inconclusive [inhibitor, single point]"
CCCCCCCOC(=O)C1=C(C)Nc2ncnn2C1c1cccs1 (stereo not drawn),,"inconclusive [inhibitor, partial curve, poor fit]"
COc1cccc(C(NC(C)=O)c2nc(-c3cccc(C(F)(F)F)c3)cs2)c1 (stereo not drawn),,"inconclusive [inhibitor, single point]"
Cc1ccc(C(c2nnnn2C2CCCCC2)N2CCc3ccccc32)cc1 (stereo not drawn),,"inconclusive [inhibitor, single point]"
COc1ccccc1-c1cc(C(=O)NN)[nH]n1,,"inconclusive [inhibitor, single point]"
O=c1[nH]nc(Cc2ccc(Cl)cc2)c2ccccc12,,"inconclusive [inhibitor, partial curve]"
COc1cccc(C(c2nnnn2Cc2ccco2)N2CCN(Cc3ccccc3)CC2)c1OC (stereo not drawn),,"inconclusive [inhibitor, full curve]"
Cc1cccc(NC2SC(=O)NC2=O)c1 (stereo not drawn),inactive: 7.66%,
